In PubChem BioAssay AID1347428 (National Center for Advancing Translational Sciences (NCATS), 2020):
Screen size: about 91,000 compounds; about 290 (0.32%) were called active. The inconclusive results got no clear call from the source; some entries with a clear call stand among them for comparison. Calls come from the whole dose curve; as a rule, active = well fitted inhibition curve with a large enough effect; inconclusive = small, poorly fitted or top-dose-only effect; inactive = no such curve, though single readings can be large or run the other way. A potency beside an inconclusive call is a rough fit, not a confirmed value.

These compounds were tested against Single-stranded DNA cytosine deaminase (Homo sapiens) (UniProt Q9GZX7) (assay: Primary qHTS assay for inhibitors of Activation Induced Cytidine Deaminase (AID): AID signal). Details: AID deamination FRET fluorescence, UDG-coupled, 4 h; series mostly up to 115 µM.
Note: nearly all actives have a fitted effect of over 25% in size.
Potency is the fitted concentration of half-maximal effect; tags give direction and shape of the fitted curve.

UniProt Q9GZX7, sequence (Q9GZX7 whole entry, looked up): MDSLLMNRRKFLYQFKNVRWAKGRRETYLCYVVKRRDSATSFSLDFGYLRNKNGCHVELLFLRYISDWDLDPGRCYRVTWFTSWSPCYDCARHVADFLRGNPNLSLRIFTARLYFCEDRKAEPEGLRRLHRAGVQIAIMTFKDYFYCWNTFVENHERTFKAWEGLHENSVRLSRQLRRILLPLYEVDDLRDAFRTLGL

Compound	Potency
O=C(NCCc1ccc(Cl)cc1)c1ccc2c(c1)N(Cc1ccc(Cl)cc1)C(=O)CS2	inconclusive: 25.1 µM [inhibitor, full curve]
O=C(C1CC1)N(Cc1ccc2c(c1)CN(S(=O)(=O)c1ccc(F)c(F)c1)CCO2)c1ccccc1	inconclusive: 44.7 µM [inhibitor, partial curve, poor fit]
C=Cc1ccc(Cn2c(=O)n(-c3cccc(Cl)c3)c(=O)c3c4c(sc32)CN(C(C)=O)CC4)cc1	inconclusive: 39.8 µM [inhibitor, single point]
Cc1ccc(S(=O)(=O)N(CC(=O)NCCSc2ccc(Cl)cc2)c2ccccc2C)cc1	inconclusive: 20 µM [inhibitor, full curve, poor fit]
O=S1(=O)c2ccccc2N(Cc2ccc(Cl)cc2)c2ccccc21	active: 79.4 µM
CCc1nnc(NC(=O)c2nc(SCc3ccccc3F)ncc2Cl)s1	inconclusive: 79.4 µM [inhibitor, partial curve, poor fit]
CN(C)S(=O)(=O)c1ccc(C(=O)NCCSc2c(-c3ccc(Cl)cc3)[nH]c3ccccc23)cc1	inconclusive: 63.1 µM [inhibitor, partial curve, poor fit]
COc1ccc(N2CCN(C(=O)CCc3c(C)nc4cc(-c5ccc(OC)cc5OC)nn4c3C)CC2)cc1	inconclusive: 3.55 µM [inhibitor, full curve, poor fit]
COc1cccc(C(=O)Nc2ccc3oc(-c4cccc5c(Br)cccc45)nc3c2)c1	inconclusive: 56.2 µM [inhibitor, partial curve, poor fit]
CCc1ccc(NC(=O)C(CC)n2c(=O)c(-c3ccccc3NC(C)=O)nc3ccccc32)cc1 (configuration not stated)	inconclusive: 31.6 µM [inhibitor, full curve]
Cc1ccc(C)c(N2CCN(C(=O)c3cnn(-c4ccccc4Cl)c3C3CCN(C(=O)OC(C)(C)C)CC3)CC2)c1	inconclusive: 56.2 µM [inhibitor, full curve, poor fit]
O=C(CSc1nc(-c2ccc(F)cc2)[nH]c1-c1ccc(F)cc1)Nc1ccc2c(c1)OCCO2	inconclusive: 44.7 µM [inhibitor, partial curve, poor fit]
O=C(Nc1nnc(S(=O)(=O)N2CCc3ccccc32)s1)c1cccc(Cl)c1	inconclusive: 7.94 µM [inhibitor, full curve, poor fit]
CN(Cc1ccccc1)C(=O)CSc1nc(-c2ccc(F)cc2)cc(C(F)(F)F)n1	inconclusive: 3.16 µM [inhibitor, full curve, poor fit]
COc1ccc(C(=O)N2N=C(c3ccsc3)CC2c2ccc3nccnc3c2)cc1 (configuration not stated)	inconclusive: 44.7 µM [inhibitor, partial curve, poor fit]
CCN(CC)c1ccc(NC(=O)CCCn2cnc3c2c(=O)n(C)c(=O)n3C)cc1	inactive
Cc1ccc(Cl)cc1N(C)C(=O)c1sc2nc3n(c(=O)c2c1C)CCCC3	inconclusive: 39.8 µM [inhibitor, partial curve, poor fit]
COc1ccc(Nc2ncc(C(=O)Nc3cccc(OC)c3)c3ccccc23)cc1	inconclusive: 39.8 µM [inhibitor, partial curve]
Cc1ccc(/C=C(/SCC(=O)O)c2nc3ccccc3s2)cc1C	inactive
O=C(Nc1ccccc1)C1CCN(S(=O)(=O)c2ccc3c(c2)CCCN3C(=O)C2CCC2)CC1	inconclusive: 39.8 µM [inhibitor, single point]
O=C(CCCCCCCC(=O)NNC(=O)c1ccc(Cl)cc1)NNC(=O)c1ccc(Cl)cc1	inactive

Compound	Potency
COc1cccc(CC(=O)Nc2c(C(=O)N3CCN(c4ccccc4)CC3)oc3ccccc23)c1	inconclusive: 44.7 µM [inhibitor, partial curve, poor fit]
COc1ccc(C(=O)N(Cc2ccco2)Cc2ccccc2F)cc1Cl	inconclusive: 50.1 µM [inhibitor, partial curve, poor fit]
O=S(=O)(NCCc1nnc2ccc(SCc3cccc(Cl)c3)nn12)c1ccccc1	active: 39.8 µM
Cc1cc(N2CCN(C)CC2)nc2ccc(NC(=O)Nc3ccc(F)cc3)cc12	inactive
CCN(c1ccccc1)c1ncnc2c1cnn2-c1ccc(OC)cc1	inconclusive: 50.1 µM [inhibitor, partial curve, poor fit]
O=C(CCC(=O)N1CCOc2ccccc21)NCc1cccs1	inconclusive: 56.2 µM [inhibitor, partial curve, poor fit]
CNc1ccc2c(cc1=O)[C@@H](NC)CCc1cc(OC)c(OC)c(OC)c1-2	inactive
CCOc1ccc(-c2cc3nc(C4CCN(C(=O)OC(C)(C)C)CC4)c(C(=O)Nc4cccc(Cl)c4C)cn3n2)cc1	inconclusive: 39.8 µM [inhibitor, single point]
Cc1c(CC(=O)N2CCN(C(=O)C3COc4ccccc4O3)CC2)c(=O)oc2c(C)c(O)ccc12 (configuration not stated)	inconclusive: 1.58 µM [inhibitor, partial curve, poor fit]
COc1ccc(NC(=O)C(Cc2ccccc2)NS(=O)(=O)c2ccc3c(c2)oc(=O)n3C)c(OC)c1 (configuration not stated)	inconclusive: 14.1 µM [inhibitor, partial curve, poor fit]
Cc1ccc2c(CN3C(=O)NC4(CCCC4)C3=O)cc(=O)oc2c1	inactive
CCN1CCC(N(Cc2ccc(F)cc2)C(=O)Nc2ccc(C)c(F)c2)CC1	inconclusive: 31.6 µM [inhibitor, partial curve]
CCCN(CC)c1ccc(/C=N/NC(=S)Nc2ccc(C)cc2)cc1	inactive
CC(=O)c1ccc(OCc2ccccc2Cl)cc1	inactive
CC1=C(C(=O)NCc2cccc(Cl)c2)C2(CCCCCC2)OC1=O	inconclusive: 20 µM [inhibitor, full curve, poor fit]
COC(=O)CCn1c(SC(C)C(=O)c2ccc(F)c(F)c2)nc2ccccc2c1=O (configuration not stated)	inactive
Cc1ccc(COC(=O)c2ccccc2Nc2ccccc2)cc1	inactive
Cc1c2cnn(-c3ccccc3)c(=O)c2c(C)n1CC(=O)Nc1ccccc1Br	inconclusive: 44.7 µM [inhibitor, partial curve, poor fit]
O=C(NCc1ccccc1)c1ccccc1CSc1nc2ccccc2o1	inactive
COC(=O)c1ccc(COC(=O)c2cc(-c3ccco3)nc3ccccc23)cc1	inconclusive: 63.1 µM [inhibitor, partial curve, poor fit]
Cc1ccc2c(c1)-c1ncc(C(=O)c3cc(Br)ccc3O)cc1CO2	inconclusive: 100 µM [inhibitor, partial curve, poor fit]

Compound	Potency
CCCc1cc(=O)oc2cc(OS(=O)(=O)c3ccc(F)cc3Cl)ccc12	inactive
Cn1nc(-c2ccc(N3CCCCC3)c(NC(=O)c3ccc(Cl)cc3)c2)c2ccccc2c1=O	inactive
O=C(Nc1ccc(F)cc1F)N1CCN(c2ccc(Cl)c(Cl)c2)CC1	inconclusive: 44.7 µM [inhibitor, partial curve, poor fit]
CCCC12CN3CC(CCC)(CN(C1)C3c1c(C)[nH]c(=O)[nH]c1=O)C2=O (configuration not stated)	inconclusive: 44.7 µM [inhibitor, partial curve, poor fit]
Cc1ccc(C2C=C(c3ccc(Cl)cc3)Nc3nc(NC(=O)c4ccco4)nn32)cc1 (configuration not stated)	inconclusive: 31.6 µM [inhibitor, full curve]
CCCc1cnc2c(c1SCC(=O)Nc1ccccc1F)c(=O)n(C)c(=O)n2C	inconclusive: 25.1 µM [inhibitor, full curve, poor fit]
Cc1cccc(N2CCN(S(=O)(=O)c3c(C(=O)N4CCC(C)CC4)c(C)n(C)c3C)CC2)c1C	inconclusive: 39.8 µM [inhibitor, partial curve, poor fit]
COc1cccc(CNCCSc2nnnn2C)c1OCc1ccc(F)cc1	inactive
CC(C)c1ccc(NC(=O)CCn2c(=O)c3cccn3c3ccccc32)cc1	inconclusive: 28.2 µM [inhibitor, full curve, poor fit]
COc1cc(/C=C(/C#N)C(=O)c2ccccc2)cc(Br)c1O	inactive
Cc1cc(C)cc(Nc2cc(C)nc3nc(-c4ccco4)nn23)c1	inconclusive: 44.7 µM [inhibitor, partial curve, poor fit]
CCOC(=O)C1CCN(C(=O)CSc2c3c(nc4ccc(Cl)cc24)CCCC3)CC1	inconclusive: 14.1 µM [inhibitor, partial curve, poor fit]
Cc1cc(C)c(NC(=O)CSc2nnc3[nH]c(=O)cc(C)n23)c(C)c1	inactive
CC(=O)C1(C)CC2(CC(COCC(C)C)OC2=O)C(=O)O1 (configuration not stated)	inactive
CSc1ccc(CCNC(=O)c2cc3n(n2)CCCN(Cc2ccc(C)cc2)C3=O)cc1	inconclusive: 35.5 µM [inhibitor, single point]
CC(C)c1ccc(C(=O)Nc2cccc3cccnc23)cc1	inconclusive: 39.8 µM [inhibitor, single point]
O=C(Nc1nc2nc(-c3ccccc3)cc(=O)n2[nH]1)c1ccc(F)cc1	inconclusive: 50.1 µM [inhibitor, partial curve]
CCc1ccccc1N1CC(c2nc3ccccc3n2Cc2cccc(C)c2)CC1=O (configuration not stated)	inconclusive: 50.1 µM [inhibitor, partial curve, poor fit]
COc1ccc(CCNC(=O)CSc2ccc(-c3cccs3)nn2)cc1	inactive
Cc1ccc(C)c(N2CCN(C(=O)c3ccc4c(Cl)c5c(nc4c3)CCCC5)CC2)c1	inconclusive: 31.6 µM [inhibitor, partial curve, poor fit]
